# Laboratory results: PubChem BioAssay AID624296 (National Center for Advancing Translational Sciences (NCATS), 2012)
# Out of some 350,000 compounds screened, about 9,900 (2.8%) were called active. Inconclusive results, whose numbers are uncertain, are shown with a selection of clear calls. The call rests on the fitted dose curve; in most records, active means well fitted activation curve with a large enough effect; inconclusive means small, poorly fitted or top-dose-only effect; inactive means no such curve, though single readings can be large or run the other way. Potencies of inconclusive entries are left out as doubtful fits.
# Assay: A quantitative high throughput screen for small molecules that induce DNA re-replication in MCF 10a normal breast cells. Further: nearly all actives have a fitted effect of over 50% in size. On activity, positive = re-replication: % of control where 0% means no effect.
# Conditions: MCF 10A DNA re-replication, Hoechst nuclear intensity, 48 h; activity, positive = re-replication: at 46.1 µM (top of the series)
# Potency means the concentration at half of the fitted maximal effect; tags describe the fitted curve by direction and shape.
Compound,Potency,"activity, positive = re-replication"
CCCCOc1ccc2c(C)cc(=O)oc2c1OCCCC,"inconclusive [activator, single point]",
Cc1ccc(N2C(=O)N(c3ccc(C)cc3)C3CS(=O)(=O)CC32)cc1 (stereo unspecified),"inconclusive [activator, partial curve, poor fit]",
CCn1c(=O)c(C(=O)NCc2ccccn2)c(O)c2ccccc21,"inconclusive [activator, single point]",
CCn1c2ccccc2c2cc(NC(=O)CSc3nnc(-c4ccccc4)o3)ccc21,"inconclusive [activator, full curve, poor fit]",
CCCN1CCN(C(=O)C2CCN(S(=O)(=O)c3c(C)noc3/C=C/c3ccc(C)cc3)CC2)CC1,"inconclusive [activator, single point]",
CC(OC(=O)c1ccc2c(c1)OCCO2)C(=O)NC1CCCCC1C (stereo unspecified),,inactive: -0.23%
O=C(Nc1nc(-c2ccccc2)cs1)C1CCCCN1S(=O)(=O)c1ccc(Cl)cc1 (stereo unspecified),"inconclusive [activator, single point]",
CCOC(=O)C(Cc1ccc(NC(=O)/C(=C/c2ccccc2)NC(=O)c2ccccc2)cc1)N1C(=O)c2ccccc2C1=O (stereo unspecified),"inconclusive [activator, single point]",
CCN1C(=O)CCN(C2CCCC2)c2nc(Nc3ccc(C(=O)NC4CCN(C)CC4)cc3OC)ncc21,active: 10.3 µM,
CC(=O)c1sc(NC(=O)C2CCN(C(=O)c3ccc(F)cc3)CC2)nc1-c1ccccc1,"inconclusive [activator, single point]",
O=C(NCCc1ccccc1)C(=O)NCC1OCCN1S(=O)(=O)c1ccc(Br)cc1 (stereo unspecified),"inconclusive [activator, partial curve]",
CCN1C(=O)C(C(=O)c2ccccc2)SC1=S (stereo unspecified),"inconclusive [activator, single point]",
CCCC[n+]1c(-c2ccc(Cl)cc2Cl)csc1Nc1ccccc1,active: 23.1 µM,
Cc1cc(F)ccc1S(=O)(=O)N1CCCOC1CNC(=O)C(=O)NCCc1c[nH]c2ccccc12 (stereo unspecified),"inconclusive [activator, partial curve, poor fit]",
CCc1ccc(S(=O)(=O)N/N=C\c2ccc([N+](=O)[O-])o2)cc1,"inconclusive [activator, single point]",
O=S(=O)(c1ccccc1)N1CCC(O)(CSc2ccc(Cl)cc2)CC1,"inconclusive [activator, partial curve]",
COc1ccc(N(CC(=O)Nc2ccc(Cc3ccncc3)cc2)S(=O)(=O)c2ccccc2)cc1,"inconclusive [activator, partial curve, poor fit]",
NNC(=O)c1cccn(Cc2cccc(C(F)(F)F)c2)c1=O,"inconclusive [activator, single point]",
Cc1cc(N/N=C/c2ccc(O)cc2)c2cccc(C)c2n1,"inconclusive [activator, single point]",
CC1(C)Cc2c(sc3c2c(=N)n(Cc2ccco2)c(=O)n3CC(=O)Nc2cccc(Cl)c2)CO1,,inactive: 6.12%
CCOc1cc(-c2c(C)c(CC)nc(N)c2C#N)ccc1O,"inconclusive [activator, partial curve, poor fit]",
CCCCc1ccc(-c2csc(/C(C#N)=C\c3ccc(C)o3)n2)cc1,"inconclusive [activator, partial curve, poor fit]",

Compound,Potency,"activity, positive = re-replication"
O=C(/C=C/c1ccco1)N1CCc2ccccc21,,inactive: -0.283%
CCCCn1c(N)c(N(CCC(C)C)C(=O)c2ccc(N3CCCC3=O)cc2)c(=O)[nH]c1=O,,inactive: 0.88%
C=C(CC[C@@H](O)C(C)(C)O)[C@H]1CC[C@]2(C)[C@@H]1CCC1[C@@]3(C)CC[C@H](O)C(C)(C)C3CC[C@]12C (stereo partly specified),"inconclusive [activator, full curve]",
C=CCCCCCCCCc1nc(SCC(C)=O)n[nH]1,,inactive: -0.717%
CCCCc1ccc(NC2=NCC(=O)N2CCc2ccccc2)cc1,,inactive: 23.7%
CCN(Cc1ccccc1)c1ccc(/C=N/NS(=O)(=O)c2cccc([N+](=O)[O-])c2)cc1,"inconclusive [activator, single point]",
CCOC(=O)c1c(-c2ccccc2)c2cc(OC)ccc2n1CCCN(C)C,"inconclusive [activator, partial curve, poor fit]",
CCCCCCSc1cccc(-c2nc3cc(C)ccn3c2NC2CCCCC2)c1,"inconclusive [activator, partial curve, poor fit]",
Cc1c(NC(=O)COC(=O)CSc2ccc(C(N)=O)cc2[N+](=O)[O-])c(=O)n(-c2ccccc2)n1C,"inconclusive [activator, single point]",
O=C(c1ccco1)N1CCN(Cc2nnc(-c3cccc(Cl)c3)o2)CC1,"inconclusive [activator, single point]",
C(=N\Nc1nc2ccccc2s1)/c1ccccn1,"inconclusive [activator, full curve, poor fit]",
O=C(NCCCCNC(=O)c1c(Cl)cccc1Cl)c1c(Cl)cccc1Cl,,inactive: 9.71%
CN(C)c1ccc(C(=S)N2CCN(c3ccc([N+](=O)[O-])cc3)CC2)cc1,,inactive: 4.27%
CCCCCn1c(=O)[nH]c2cc(C(=O)NCCCN3CCCCC3CC)ccc2c1=O (stereo unspecified),"inconclusive [activator, single point]",
O=C(CSC1=NCCS1)NC(NC(=O)CSC1=NCCS1)c1ccccc1,,inactive: 10.9%
Cn1c(=O)[nH]c(=O)c2c1nc(NC1CCCCC1)n2Cc1ccccc1,"inconclusive [activator, partial curve, poor fit]",
Cc1c(-c2ccccc2Cl)nc2ccccc2c1C(=O)O,,inactive: -0.92%
O=C(NN=Cc1ccccc1OC(F)F)c1cccc(S(=O)(=O)N2CCCC2)c1,"inconclusive [activator, single point]",
Cn1cc(C(=O)c2ccc(Cl)cc2)cc1-c1nc2ccccc2n1C,"inconclusive [activator, single point]",
Cc1ccc(NC(=O)CCC(=O)NNC(=O)c2ccccc2Cl)c(C)c1,"inconclusive [activator, partial curve, poor fit]",
Fc1cccc(Cl)c1CSc1nnc(CNc2ccccc2)o1,"inconclusive [activator, single point]",
COc1cccc(NC(=S)NC(=O)c2cccnc2)c1,,inactive: -14.8%

Compound,Potency,"activity, positive = re-replication"
O=C1OCCC1Sc1nnc(-c2ccccc2Cl)n1Cc1ccccc1 (stereo unspecified),"inconclusive [activator, single point]",
COc1ccc(NS(=O)(=O)c2ccc(-c3cnc(C4CC4)o3)cc2)cc1OC,"inconclusive [activator, full curve, poor fit]",
CCNC(=O)NC(=O)C(C)OC(=O)CNS(=O)(=O)c1c(Cl)cc(Br)cc1Cl (stereo unspecified),"inconclusive [activator, single point]",
CCN(CC(=O)Nc1ccccc1C(F)(F)F)C(=O)CCSc1ccc(F)cc1,,inactive: 5.42%
COc1ccc(COc2ccccc2C(=O)Nc2ccccn2)cc1[N+](=O)[O-],,inactive: -4.45%
O=C(c1cccc(C(F)(F)F)c1)N1CCOc2ccccc21,,inactive: -8.3%
CSCCC(NC(=O)c1ccc([N+](=O)[O-])cc1Cl)C(=O)OC(C)C(=O)NCc1ccco1 (stereo unspecified),,inactive: 2.82%
Cc1ncc([N+](=O)[O-])n1CC(=O)Nc1ccc(F)cc1F,,inactive: -15.9%
COC(=O)c1cn(CCC#N)nc1-c1ccc2ccccc2c1,,inactive: -0.263%
COc1ccc(-c2c(C)nc3c(-c4ccsc4)cnn3c2N)cc1,"inconclusive [activator, partial curve, poor fit]",
COc1ccc(S(=O)(=O)c2c(N)n(Cc3ccco3)c3nc4ccccc4nc23)cc1,"inconclusive [activator, single point]",
COCCN(CC(=O)NC1CCCCC1)C(=O)/C=C/C(=O)c1ccc(OC)cc1O,active: 6.51 µM,
O=C(CSc1nncn1-c1ccccc1)Nc1ccc(N2CCOCC2)cc1,"inconclusive [activator, single point]",
CCS(=O)(=O)c1ccc2oc(SCC(=O)c3c(N)n(C4CC4)c(=O)[nH]c3=O)nc2c1,,inactive: 2.52%
CNc1oc(Cc2ccccc2)nc1S(=O)(=O)c1ccccc1,"inconclusive [activator, single point]",
COCCCNC(=O)Cn1cc(/C=C(\C#N)C(=O)NC2CCCC2)c2ccccc21,"inconclusive [activator, single point]",
O=C(CN1C(=O)/C(=C/c2ccc(C(F)(F)F)cc2)Sc2ccccc21)NCCCN1CCOCC1,active: 20.6 µM,
CCc1cccc(CC)c1NC(=O)CN(CC(=O)O)CC(=O)O,"inconclusive [activator, partial curve, poor fit]",
COc1cccc(N2CC(NC(=O)c3ccc4ccccc4c3)CC2=O)c1 (stereo unspecified),"inconclusive [activator, single point]",
Cc1cccc(NC(=O)CN2C(=O)S/C(=C\c3ccccn3)C2=O)c1,"inconclusive [activator, full curve]",
O=C(CSc1nnc(-c2ccncc2)n1Cc1ccco1)Nc1cccc(O)c1,,inactive: 4.2%
COc1ccc(-c2noc(CCC(=O)NC3CCN(Cc4ccccc4)CC3)n2)cc1,"inconclusive [activator, partial curve, poor fit]",
